{
  "source": "paper PMC4336329",
  "about": "(PLoS ONE, 2015)",
  "note": "About 2,200 (0.71%) of roughly 310,000 compounds showed an effect of 50% or more. Effects have a minus sign here. The list shows a part of the results.",
  "data": [
    {"biological_target": "human ether-à-go-go-related gene (hERG) potassium channel (human, UniProt Q12809)", "sequence (Q12809 whole entry, looked up)": "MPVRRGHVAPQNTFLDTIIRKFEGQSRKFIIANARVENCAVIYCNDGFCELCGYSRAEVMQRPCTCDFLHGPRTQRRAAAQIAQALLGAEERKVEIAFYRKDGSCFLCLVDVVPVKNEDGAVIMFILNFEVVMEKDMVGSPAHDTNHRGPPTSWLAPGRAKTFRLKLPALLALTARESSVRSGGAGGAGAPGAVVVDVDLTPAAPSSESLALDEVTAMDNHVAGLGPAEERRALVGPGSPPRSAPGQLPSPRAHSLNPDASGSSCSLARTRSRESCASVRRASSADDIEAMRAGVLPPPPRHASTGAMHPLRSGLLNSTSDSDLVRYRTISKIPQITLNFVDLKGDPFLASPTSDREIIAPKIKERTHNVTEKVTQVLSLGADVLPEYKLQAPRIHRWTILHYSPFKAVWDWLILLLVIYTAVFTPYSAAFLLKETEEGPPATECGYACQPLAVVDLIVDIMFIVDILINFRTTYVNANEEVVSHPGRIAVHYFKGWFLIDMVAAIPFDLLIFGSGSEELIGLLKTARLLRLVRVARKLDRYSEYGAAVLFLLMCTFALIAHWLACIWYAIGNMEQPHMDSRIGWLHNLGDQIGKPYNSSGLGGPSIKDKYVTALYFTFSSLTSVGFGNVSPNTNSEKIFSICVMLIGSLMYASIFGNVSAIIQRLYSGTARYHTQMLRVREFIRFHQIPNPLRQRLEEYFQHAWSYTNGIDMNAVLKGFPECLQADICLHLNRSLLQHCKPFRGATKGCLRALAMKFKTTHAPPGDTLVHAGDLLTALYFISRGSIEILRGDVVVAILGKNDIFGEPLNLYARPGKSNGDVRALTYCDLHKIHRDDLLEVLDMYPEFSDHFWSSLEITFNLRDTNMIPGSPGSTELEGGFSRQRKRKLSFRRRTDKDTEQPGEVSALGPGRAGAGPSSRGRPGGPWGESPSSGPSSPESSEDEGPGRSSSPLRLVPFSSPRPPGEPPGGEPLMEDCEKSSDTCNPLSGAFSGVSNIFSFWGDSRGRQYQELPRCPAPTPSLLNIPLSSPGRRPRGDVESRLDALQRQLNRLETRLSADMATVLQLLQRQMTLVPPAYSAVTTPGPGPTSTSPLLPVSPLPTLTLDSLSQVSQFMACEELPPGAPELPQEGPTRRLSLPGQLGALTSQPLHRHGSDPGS", "experiment": "primary screen, population patch clamp on CHO cells stably expressing hERG", "units": {"hERG current change (%, negative = inhibition) at 1uM": "%"}, "values": [
      {"smiles": "CC(=O)NC(Cc1ccccc1)C(=O)N1CCN(C(=O)c2ccco2)CC1", "note": "(centres unmarked)", "hERG current change (%, negative = inhibition) at 1uM": 5.18},
      {"smiles": "COc1ccc(OCCSCc2nnc(NC(=O)Nc3ccc(Cl)cc3)s2)cc1", "hERG current change (%, negative = inhibition) at 1uM": 9.02},
      {"smiles": "Cc1sc(C(C2C(=O)CC(C)(C)CC2=O)C2C(=O)CC(C)(C)CC2=O)cc1[N+](=O)[O-]", "hERG current change (%, negative = inhibition) at 1uM": 16},
      {"smiles": "Cc1[nH]nc(Nc2ccc(O)cc2)c1[N+](=O)[O-]", "hERG current change (%, negative = inhibition) at 1uM": 8.52},
      {"smiles": "CCN(CC)CCCN(C)C(=O)Cn1nc(Cc2ccncc2)c2ccccc2c1=O", "hERG current change (%, negative = inhibition) at 1uM": 12.2},
      {"smiles": "O=C(CSc1nnnn1CCCO)Nc1ccc2c(c1)OCO2", "hERG current change (%, negative = inhibition) at 1uM": 13.9},
      {"smiles": "Cc1cc(C)cc(-n2ncc3c2CCCC3NC(=O)CCCn2cncn2)c1", "note": "(centres unmarked)", "hERG current change (%, negative = inhibition) at 1uM": 5.09},
      {"smiles": "CC1CCc2sc(NC(=O)C3CC(Cl)=CCC3C(=O)O)c(C#N)c2C1", "note": "(centres unmarked)", "hERG current change (%, negative = inhibition) at 1uM": 14.9},
      {"smiles": "CC(=O)c1cc(C#N)c(Oc2cc(C)cc(C)c2)nc1C", "hERG current change (%, negative = inhibition) at 1uM": 5.82},
      {"smiles": "COc1ccc(N2CCN(S(=O)(=O)CCNC(=O)COc3ccccc3OC)CC2)cc1", "hERG current change (%, negative = inhibition) at 1uM": 4.64},
      {"smiles": "O=C(NC(=S)NCCc1ccccc1)c1cccc(Cl)c1", "hERG current change (%, negative = inhibition) at 1uM": 11.3},
      {"smiles": "NC(=O)C1CCN(CC(=O)Nc2ccccc2Sc2ccccc2)CC1", "hERG current change (%, negative = inhibition) at 1uM": -16.2},
      {"smiles": "Cc1ccc(-n2c(SCC(=O)N3CCOCC3)nnc2-c2cccnc2)cc1", "hERG current change (%, negative = inhibition) at 1uM": 7.05},
      {"smiles": "O=C1CC(N2CCN(c3ccccc3Cl)CC2)C(=O)N1c1cccc(F)c1", "note": "(centres unmarked)", "hERG current change (%, negative = inhibition) at 1uM": 11.5},
      {"smiles": "Cc1ccc(COC(=O)CN2C(=O)NC3(CCCC3)C2=O)cc1", "hERG current change (%, negative = inhibition) at 1uM": 15},
      {"smiles": "COc1cc(NC(=O)c2ccccc2)c(OC)cc1Cl", "hERG current change (%, negative = inhibition) at 1uM": 5.79},
      {"smiles": "CC(NC(=O)CN1C(=O)NC2(CCCCCC2)C1=O)c1ccccc1", "note": "(centres unmarked)", "hERG current change (%, negative = inhibition) at 1uM": -1.98},
      {"smiles": "Cc1cc(C)n(NC(=S)NC2CCCCC2)c(=O)c1C#N", "hERG current change (%, negative = inhibition) at 1uM": 14.2},
      {"smiles": "COCC(C)NC(=O)c1cccc(Cl)c1", "note": "(centres unmarked)", "hERG current change (%, negative = inhibition) at 1uM": 19.2},
      {"smiles": "O=C(c1ccccc1F)N1CCN(S(=O)(=O)c2ccc3c(c2)OCCO3)CC1", "hERG current change (%, negative = inhibition) at 1uM": -5.24},
      {"smiles": "Cc1nn(CC(=O)O)c(C)c1C", "hERG current change (%, negative = inhibition) at 1uM": 5.74},
      {"smiles": "O=C(CCc1nnc2ccc(N3CCC4(CC3)OCCO4)nn12)N1CCCCC1", "hERG current change (%, negative = inhibition) at 1uM": 14},
      {"smiles": "Cc1cc(C)n(-c2nc(C)nc(NCc3ccccc3)n2)n1", "hERG current change (%, negative = inhibition) at 1uM": -61.6},
      {"smiles": "Nn1c(SCC(=O)NC2CCCCC2)nnc1-c1ccccc1F", "hERG current change (%, negative = inhibition) at 1uM": 8.78},
      {"smiles": "O=C(Nc1ccccc1C(=O)Nc1ccc(Cl)cc1)c1cccnc1", "hERG current change (%, negative = inhibition) at 1uM": 9.07},
      {"smiles": "CCOc1ccc(N(CC(=O)Nc2ccc(Br)cc2)S(C)(=O)=O)cc1", "hERG current change (%, negative = inhibition) at 1uM": 10},
      {"smiles": "COCCNS(=O)(=O)c1ccc(C)c(C)c1C", "hERG current change (%, negative = inhibition) at 1uM": 6.58},
      {"smiles": "Cc1cc(=O)oc2cc(OCC3CC(c4ccccc4)=NO3)ccc12", "note": "(centres unmarked)", "hERG current change (%, negative = inhibition) at 1uM": -5.82},
      {"smiles": "S=C(NCCN1CCOCC1)N/N=C/c1ccccc1", "hERG current change (%, negative = inhibition) at 1uM": 7.71},
      {"smiles": "O=C(CSc1ccc(-c2cccnc2)nn1)N1CCCC1", "hERG current change (%, negative = inhibition) at 1uM": 5.56},
      {"smiles": "CC(=O)c1c(C(C)=O)c(C)n(Cc2ccccc2)c1C", "hERG current change (%, negative = inhibition) at 1uM": 3.29},
      {"smiles": "CC(=O)c1ccc2c(c1)OCCOCCOc1ccc(C(C)=O)cc1OCCOCCO2", "hERG current change (%, negative = inhibition) at 1uM": -84.8},
      {"smiles": "Cc1ccc(C(=O)NNC(=O)CSc2nc(N)cc(N)n2)cc1", "hERG current change (%, negative = inhibition) at 1uM": 8.99},
      {"smiles": "CCC(C(=O)OCC(=O)Nc1cc(C)ccc1OC)c1ccccc1", "note": "(centres unmarked)", "hERG current change (%, negative = inhibition) at 1uM": 14.2},
      {"smiles": "Cc1nc2c(S(=O)(=O)c3ccccc3)cnn2c(C)c1C", "hERG current change (%, negative = inhibition) at 1uM": 17.2},
      {"smiles": "O=[N+]([O-])c1ccc2[nH]nc(-c3ccccc3)c2c1", "hERG current change (%, negative = inhibition) at 1uM": 14.6},
      {"smiles": "CCOC(=O)N1CCC(Nc2ccc(N3C(=O)C4CCCCC4C3=O)cc2[N+](=O)[O-])CC1", "note": "(centres unmarked)", "hERG current change (%, negative = inhibition) at 1uM": 10.4},
      {"smiles": "CCn1c(SCC(N)=O)nnc1-c1ccc2[nH]c(C)c(C)c2c1", "hERG current change (%, negative = inhibition) at 1uM": 2.32},
      {"smiles": "O=C(CSc1nnc(-c2ccco2)c(-c2ccco2)n1)Nc1ccccc1", "hERG current change (%, negative = inhibition) at 1uM": -34.1},
      {"smiles": "CCOc1ccc(/C=C/c2c([N+](=O)[O-])c(=O)n(C)c(=O)n2C)cc1", "hERG current change (%, negative = inhibition) at 1uM": 9.27},
      {"smiles": "Cc1ccc(C(=O)N2CCc3ccccc32)cc1[N+](=O)[O-]", "hERG current change (%, negative = inhibition) at 1uM": 2.67},
      {"smiles": "CCCCn1c(O)c(C(CC)=NCCCN(C)C)c(=O)[nH]c1=O", "hERG current change (%, negative = inhibition) at 1uM": 2},
      {"smiles": "Cc1ccc2c(c1)N(CC(=O)O)C(=O)CO2", "hERG current change (%, negative = inhibition) at 1uM": -4.9},
      {"smiles": "CCN(CC)CCCN1C(=O)C(=O)/C(=C(/O)c2ccc(C)cc2)C1c1ccccn1", "note": "(centres unmarked)", "hERG current change (%, negative = inhibition) at 1uM": 7.98},
      {"smiles": "O=C(Nc1nnc(-c2cccs2)s1)C1CC1", "hERG current change (%, negative = inhibition) at 1uM": 6.41},
      {"smiles": "CCOC(=O)COc1ccc(S(=O)(=O)NCC2CCCO2)cc1", "note": "(centres unmarked)", "hERG current change (%, negative = inhibition) at 1uM": 7.87},
      {"smiles": "O=C(CSc1nnc(-c2ccco2)n1Cc1ccco1)N1CCOCC1", "hERG current change (%, negative = inhibition) at 1uM": -1.32},
      {"smiles": "CCO[C@H]1OC(C(=O)NC2CC2)=C[C@@H](c2c[nH]c3ccccc23)[C@@H]1CCCO", "hERG current change (%, negative = inhibition) at 1uM": 14.3},
      {"smiles": "CC(C)(C)C(=O)N1CCN(c2nc3ccc(Br)cc3s2)CC1", "hERG current change (%, negative = inhibition) at 1uM": 15.4},
      {"smiles": "Nc1nnnn1/N=C/c1cccc(Oc2ccccc2)c1", "hERG current change (%, negative = inhibition) at 1uM": 15.1},
      {"smiles": "O=C(Nc1ccccc1C(=O)OC1CCOC1=O)c1ccco1", "note": "(centres unmarked)", "hERG current change (%, negative = inhibition) at 1uM": -8.74},
      {"smiles": "CCCC1(CCC)C(=O)NC(=Nc2ccccc2)NC1=O", "hERG current change (%, negative = inhibition) at 1uM": 11.7},
      {"smiles": "CCN(CC)CCn1c(N)c(S(=O)(=O)c2ccccc2)c2nc3ccccc3nc21", "hERG current change (%, negative = inhibition) at 1uM": -7.1},
      {"smiles": "CN1C(=O)C2(c3ccccc31)N(C)CC(c1ccccn1)C21SC(=S)N(Cc2ccco2)C1=O", "note": "(centres unmarked)", "hERG current change (%, negative = inhibition) at 1uM": 4.55},
      {"smiles": "Cc1cc2nc(CCN(Cc3cccnc3)C(=S)Nc3ccccc3)[nH]c2cc1C", "hERG current change (%, negative = inhibition) at 1uM": -6.23},
      {"smiles": "COc1ccc(CCn2c(O)c(C=NCCCO)c(=O)[nH]c2=O)cc1OC", "hERG current change (%, negative = inhibition) at 1uM": 11.3},
      {"smiles": "COc1cccc(C(=O)COc2ccc3ccc(=O)oc3c2)c1", "hERG current change (%, negative = inhibition) at 1uM": 4.41},
      {"smiles": "COc1cc(C(=O)Nc2nc3ccccc3[nH]2)ccc1OC(F)F", "hERG current change (%, negative = inhibition) at 1uM": -0.921},
      {"smiles": "COc1ccccc1OCC(=O)Nc1ccc(S(=O)(=O)Nc2cc(C)nc(C)n2)cc1", "hERG current change (%, negative = inhibition) at 1uM": 11.9}
    ]}
  ]
}
